Reference: PubChem BioAssay AID624417 (National Center for Advancing Translational Sciences (NCATS), 2012)
Several values for one entry are separate records, joined by “and”; a condition that tells them apart may be missing. Equal values may be shown once. Among all 410,000 compounds or so, about 6,400 (1.6%) were called active. Inconclusive results, whose numbers are uncertain, are shown with a selection of clear calls. Calls come from the whole dose curve; as a rule, active = well fitted inhibition curve with a large enough effect; inconclusive = small, poorly fitted or top-dose-only effect; inactive = no such curve, though single readings can be large or run the other way. A potency beside an inconclusive call is a rough fit, not a confirmed value.

What follows are compounds tested against Glucagon-like peptide 1 receptor (Homo sapiens) (UniProt P43220) (assay: qHTS of GLP-1 Receptor Inverse Agonists (Inhibition Mode)). Settings: HEK293 GLP-1R CRE-luciferase, luminescence, 24 h, GLP-1R form is constitutively active; series mostly up to 38.3 µM.
Outline: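 qHTS in 1536-well format: reporter HEK293 cells expressing constitutive GLP-1R activity in DMEM + 10% Nu serum, 24 hr with compounds at 37 deg C, luminescence read after 12 min with detection reagent.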
Note: nearly all actives have a fitted effect of over 55% in size.
Potency is the fitted concentration of half-maximal effect; tags give direction and shape of the fitted curve.

Sequence of UniProt P43220 (P43220 whole entry, looked up): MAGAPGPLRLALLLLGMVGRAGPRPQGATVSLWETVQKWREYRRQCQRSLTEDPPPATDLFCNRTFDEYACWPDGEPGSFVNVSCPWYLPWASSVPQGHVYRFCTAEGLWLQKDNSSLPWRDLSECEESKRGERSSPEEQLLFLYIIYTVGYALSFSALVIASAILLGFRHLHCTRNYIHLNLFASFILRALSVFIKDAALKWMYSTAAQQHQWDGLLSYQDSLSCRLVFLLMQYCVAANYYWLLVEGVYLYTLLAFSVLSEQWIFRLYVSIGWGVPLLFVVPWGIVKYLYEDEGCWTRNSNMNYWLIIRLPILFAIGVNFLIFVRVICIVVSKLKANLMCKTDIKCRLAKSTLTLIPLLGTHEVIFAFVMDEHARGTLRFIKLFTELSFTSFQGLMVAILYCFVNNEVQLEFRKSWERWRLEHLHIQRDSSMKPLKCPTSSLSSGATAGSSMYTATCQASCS

Row | SMILES | Potency
1 | CN1CCN(C(=O)c2cc(-c3ccccc3)on2)CC1 | inactive
2 | CC(NC(=O)C1CC12CCC2)c1ccccc1 (configuration not stated) | inconclusive: 12.6 µM [inhibitor, single point]
3 | CN1c2ccc(Cl)cc2C(=O)NC1c1ccc([N+](=O)[O-])s1 (configuration not stated) | inconclusive: 10 µM [inhibitor, partial curve, poor fit]
4 | CC(C)(C)[C@@H]1COC(=O)[C@H](Cc2ccc(F)cc2)C/C=C\C[C@@H](CC(=O)N(CCO)Cc2ccccc2)C(=O)N1 | inconclusive: 28.2 µM [inhibitor, single point]
5 | O=C(CC1C(=O)NCCN1CC1CCCCC1)NCc1ccc(Cl)cc1 (configuration not stated) | inconclusive: 28.2 µM [inhibitor, single point]
6 | O=C(O)CC1(CC(=O)Nc2ccc(F)c(Cl)c2)CCCCC1 | inconclusive: 10 µM [inhibitor, single point]
7 | COc1cccc(C(=O)NCC(c2ccc(N(C)C)cc2)N2CCc3ccccc32)c1OC (configuration not stated) | inconclusive: 17.8 µM [inhibitor, single point]
8 | COC(=O)C(NC(=O)c1ccc(OC)cc1)(Nc1ncc(S(=O)(=O)c2ccc([N+](=O)[O-])cc2)s1)C(F)(F)F (configuration not stated) | inconclusive: 8.91 µM [inhibitor, partial curve, poor fit]
9 | CCOC(=O)CNC(=O)CSc1nnc(-c2cccc(OC)c2)n1CC | inconclusive: 10 µM [inhibitor, partial curve, poor fit]
10 | CC(C)c1ccc(C(=O)Nc2ccc(-c3nc4ccccc4s3)c(Cl)c2)cc1 | inactive
11 | O=C(NNc1ccccc1Br)C(O)(c1cccc(C(F)(F)F)c1)c1cccc(C(F)(F)F)c1 | active: 3.16 µM
12 | CSc1ccc(/C=N/n2c(Cc3ccc(Br)cc3)n[nH]c2=S)cc1 | inconclusive: 10 µM [inhibitor, single point]
13 | CCN(CC)CCCn1c(=S)[nH]c2ccc(Cl)cc2c1=O | inactive
14 | COc1ccc(NC(=O)/C(Cl)=C(/Cl)S(=O)Cc2ccccc2Cl)cn1 (configuration not stated) | inconclusive: 3.98 µM [inhibitor, full curve, poor fit]
15 | CCOc1ccc(OCCNC(=O)c2cc(C3CC3)nc3c2cnn3C(C)C)cc1 | active: 8.91 µM
16 | Fc1ccc(NC(=S)SCc2ccc3c(c2)OCO3)cc1F | inconclusive: 28.2 µM [inhibitor, single point]
17 | O=C(CCCOc1ccccc1)Nc1nccs1 | inactive
18 | O=C(NCCCN1CCN(Cc2ccccc2Cl)CC1)Nc1ccccc1 | inactive
19 | CC1Cc2ccccc2N1C(=O)CSc1nnc(Cc2ccccc2)n1CCc1ccccc1 (configuration not stated) | inconclusive: 10 µM [inhibitor, partial curve, poor fit]
20 | Cc1c(Cl)cccc1NC(=S)NN | inactive
21 | Cc1cccc(CCN(CC(=O)NCc2ccc(F)cc2)C(=O)c2csnn2)c1 | inconclusive: 12.6 µM [inhibitor, single point]

Row | SMILES | Potency
22 | Cc1nn(CC(=O)c2cccc(Cl)c2)c(C)c1[N+](=O)[O-] | inconclusive: 28.2 µM [inhibitor, single point]
23 | c1ccc(-c2cc3c(N4CCCC4)ncnc3s2)cc1 | inactive
24 | COc1cc(C2C3=C(COC3=O)Oc3cc4c(cc32)OCO4)ccc1O (configuration not stated) | inconclusive: 1.26 µM [inhibitor, full curve, poor fit]
25 | COC(C(=O)Nc1ccc(S(=O)(=O)Nc2cccc3ccccc23)cc1)c1ccccc1 (configuration not stated) | inconclusive: 14.1 µM [inhibitor, partial curve, poor fit]
26 | Cc1ccccc1Nc1cc(C(=O)NC2CCC(C)CC2)c2ccccc2n1 (configuration not stated) | inconclusive: 12.6 µM [inhibitor, partial curve]
27 | COc1ccc(CNc2oc(COc3ccccc3)nc2C#N)cc1 | active: 10 µM
28 | CC(C)N(Cc1ccccc1)S(=O)(=O)c1ccc2c(c1)NC(=O)CO2 | inconclusive: 28.2 µM [inhibitor, single point]
29 | Cc1ccc2nc(N(CCCN(C)C)C(=O)c3ccc(S(=O)(=O)N4CCOCC4)cc3)sc2c1 | inconclusive: 12.6 µM [inhibitor, partial curve, poor fit]
30 | Cc1occc1-c1nnc(SCC(=O)Nc2ccccn2)o1 | inactive
31 | CCOc1ccc(Br)cc1S(=O)(=O)Nc1cccc(S(=O)(=O)N2CCOCC2)c1 | inactive
32 | O=C(COc1ccc(C(=O)c2ccc(F)cc2)cc1)Nc1cccc(S(=O)(=O)N2CCOCC2)c1 | inconclusive: 17.8 µM [inhibitor, partial curve, poor fit]
33 | Cc1ccc(Sc2ccc(CO)cc2[N+](=O)[O-])cc1 | inactive
34 | O=C(Nc1ccc(F)cc1F)c1cc2ccc3cccnc3c2[nH]1 | inactive
35 | O=C(Nc1ccc(Cl)cc1C(=O)NCC1CCCO1)c1ccc(Cl)cc1Cl (configuration not stated) | inconclusive: 11.2 µM [inhibitor, partial curve, poor fit]
36 | COc1cc(OC)cc(-c2cc3cc4c(cc3cn2)OCO4)c1 | inconclusive: 0.282 µM [inhibitor, full curve, poor fit]
37 | Cc1cccc(-c2nc3ccc(C(=O)NCCN4CCN(C)CC4)cc3nc2-c2cccc(C)c2)c1 | inconclusive: 11.2 µM [inhibitor, single point]
38 | CCN1CCN(c2cc(C)c3cc(NC(=O)CCC(=O)N4CCN(c5ccccc5)CC4)ccc3n2)CC1 | inconclusive: 3.16 µM [inhibitor, full curve]
39 | Cc1noc(NS(=O)(=O)c2ccc(NC(=O)/C=C/c3ccc(Cl)cc3Cl)cc2)c1C | inactive
40 | CC(C)c1cc(C(=O)NC2CCCc3c2cnn3-c2ccccc2F)no1 (configuration not stated) | inconclusive: 4.47 µM [inhibitor, full curve]
41 | Cc1oc2ccc(O)c(CN3CCOCC3)c2c1C(=O)Nc1ccc(C(C)C)cc1 | inconclusive: 28.2 µM [inhibitor, single point]
42 | CCc1cc(Cl)c(OC)c(C(=O)NC[C@@H]2CCCN2CC)c1O | inconclusive: 7.08 µM [inhibitor, partial curve, poor fit] and inconclusive: 8.91 µM [inhibitor, partial curve, poor fit]
